Source: PubChem BioAssay (Tox21)
Several values for one entry are separate records, joined by “and”; a condition that tells them apart may be missing. Equal values may be shown once. The source holds several records for some structures; these can differ, active in one and inactive in another. Activity calls are given as the source filed them. Entries that show only a call come without a potency. Unless noted, calls follow the shape of the dose curve; as a rule, active = well fitted curve in the direction sought with a large enough effect in the repeat runs; inconclusive = weak or mixed curves; inactive = no such curve, though single readings can be large; an effect the other way counts as inactive or inconclusive.

Assays:
[1] = molecular target: Estrogen receptor (Homo sapiens) (UniProt P03372); assay: qHTS assay to identify small molecule antagonists of the estrogen receptor alpha (ER-alpha) signaling pathway (AID 743069; active = well fitted curve in the direction sought with a large enough effect in the signal ratio in the repeat runs, not every such curve was filed as active; inconclusive = weak or mixed curves, or effect the other way; inactive = no such curve, though single readings can be large or run the other way; the % refers to the signal ratio; also: potency is read from the fitted curve at half-maximal effect); settings: HEK293 ER-alpha-UAS-bla, beta-lactamase ratio, antagonist mode; activity, negative = inhibition: at 69.4 µM (top of the series) unless noted
In short: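 A 17beta-estradiol challenge was applied right after compound transfer to ER-alpha-UAS-bla HEK293 cells previously kept in charcoal-stripped serum. Plates stood 18 hr at 37C and 5% CO2; fluorescence was read following 2 hr FRET substrate loading at room temperature.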

[2] = A CellTox Green Cytotoxicity Assay to monitor cytotoxicity in HEK293 cells - 40 hour (AID 1224871); also: potency is read from the fitted curve at half-maximal effect; nearly all actives have a fitted effect of over 45% in size
In short: (§1)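 Dead-cell fluorescence measured kinetically: asymmetric cyanine dye, HEK293, 600 cells/well, 5 h settle, 23 nL cpd/DMSO, 37 C, reads 0–40 h every 8 h.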

[3] = A CellTox Green Cytotoxicity Assay to monitor cytotoxicity in HEK293 cells - 32 hour (AID 1224881); also: potency is read from the fitted curve at half-maximal effect; nearly all actives have a fitted effect of over 40% in size
In short: as §1

[4] = qHTS assay to identify small molecule antagonists of the estrogen receptor alpha (ER-alpha) signaling pathway using the BG1 cell line (AID 743080; calls by dose curve;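 also: BG1 cells stimulated with 17beta-estradiol alongside compound; nearly all actives have a fitted effect of over 25% in size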; also: potency is read from the fitted curve at half-maximal effect); settings: BG1Luc4E2 ERE-luciferase antagonist mode, luminescence; activity change, negative = inhibition: at 70.3 µM (top of the series) unless noted
In short: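 Luminescence from a 4×ERE-luciferase reporter in BG1-Luc-4E2 cells served as read-out. Cells, pre-cultured 5 days in stripped-serum phenol-red-free medium, were exposed to compound with 17beta-estradiol co-stimulation for 21.5 h at 37 C.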

[5] = qHTS assay to identify small molecule agonists of the vitamin D receptor (VDR) signaling pathway - cell viability counter screen (AID 743224); also: nearly all actives have a fitted effect of over 50% in size; also: potency is read from the fitted curve at half-maximal effect
In short: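 Compounds were pin-transferred onto VDR-bla cells plated 4 h earlier; following 16 h incubation at 37C, cell viability was quantified by CellTiter-Glo luminescence after 30 min at room temperature.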

[6] = qHTS assay to identify small molecule agonists of H2AX - cell viability counter screen (AID 1224847; calls by dose curve; also: nearly all actives have a fitted effect of over 30% in size; also: potency is read from the fitted curve at half-maximal effect; as to activity change, negative = cytotoxicity: top concentration of the series differs between compounds)
In short: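 Counter-screen for viability: CellTiter-Glo ATP luminescence read after 3 h compound treatment (15-point titration, 0.76% DMSO final) of CHO-K1 cells at 37C, with 30 min room-temperature reagent incubation.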

[7] = qHTS assay to identify small molecule antagonists of the glucocorticoid receptor (GR) signaling pathway - cell viability counter screen (AID 720693); settings: GR-bla HeLa viability, CellTiter-Glo luminescence, 18 h, with 5 nM dexamethasone present; viability change, negative = cytotoxic: at 58.5 µM (top of the series); also: nearly all actives have a fitted effect of over 55% in size; also: potency is read from the fitted curve at half-maximal effect
[8] = molecular target: Peroxisome proliferator-activated receptor gamma (Homo sapiens) (UniProt P37231); assay: qHTS assay to identify small molecule agonists of the peroxisome proliferator-activated receptor gamma (PPARg) signaling pathway (AID 743094; active = well fitted activation curve with a large enough effect in the signal ratio in the repeat runs, not every such curve was filed as active; inconclusive = weak or mixed curves, or effect the other way; inactive = no such curve, though single readings can be large or run the other way; the % refers to the signal ratio); settings: HEK293H PPARg-UAS-bla, beta-lactamase FRET ratio, 17 h; activation: at 57 µM (top of the series) unless noted
In short: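 Reporter activation was scored by fluorescence of cleaved LiveBLAzer B/G substrate (1 h, room temperature) in PPARg-bla HEK293H cells previously treated 17 h at 37C with DMSO-dissolved compounds.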

[9] = Human pregnane X receptor (PXR) small molecule agonists, qHTS cell viability counter screen (AID 1346977); also: nearly all actives have a fitted effect of over 50% in size; also: potency is read from the fitted curve at half-maximal effect
In short: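 Same-well viability read: CellTiter-Fluor added after 23 hr compound exposure, fluorescence measured 1 hr later. Cells were PXR-Luc HepG2 seeded at 2,000/well in 5% charcoal-stripped FBS medium, rested 5 hr before dosing at 37 C.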

[10] = A CellTox Green Cytotoxicity Assay to monitor cytotoxicity in HepG2 cells - 24 hour (AID 1224878); also: nearly all actives have a fitted effect of over 45% in size; also: potency is read from the fitted curve at half-maximal effect
In short: (§2)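 First, HepG2 cells (600/well) mixed with reagent were plated; second, after 5 h at 37 C they received compounds via pintool; third, fluorescence was measured at 0 h through 40 h at 8 h intervals.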

[11] = A CellTox Green Cytotoxicity Assay to monitor cytotoxicity in HepG2 cells - 32 hour (AID 1224883); also: nearly all actives have a fitted effect of over 50% in size; also: potency is read from the fitted curve at half-maximal effect
In short: as §2

[12] = qHTS RealTime-Glo MT Cell Viability Assay in HEK293 cells - 8 hour (AID 1224887); also: top concentration of the series differs between compounds; nearly all actives have a fitted effect of over 50% in size
In short: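 600 HEK293 cells per well, dispensed already mixed with RealTime-Glo MT reagents. Compound dosing came 5 h later. The same wells were read for luminescence at 0, 8, 16, 24, 32 and 40 h of exposure at 37 C.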

[13] = molecular target: Nuclear receptor subfamily 1 group I member 2 (Homo sapiens) (UniProt O75469); assay: Human pregnane X receptor (PXR) small molecule agonists, qHTS assay (AID 1346982); also: nearly all actives have a fitted effect of over 35% in size
In short: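 Reporter HepG2 cells expressing PXR-Luc are cultured in charcoal-stripped FBS (5%), treated with compounds for 24 hr at 37 C, and assayed by ONE-Glo luminescence after 30 min at room temperature.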

[14] = molecular target: Peroxisome proliferator-activated receptor delta (Homo sapiens) (UniProt Q03181); assay: qHTS assay to identify small molecule agonists of the peroxisome proliferator-activated receptor delta (PPARd) signaling pathway (AID 743212; calls by dose curve;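 also: HEK293H cells with PPARd UAS beta-lactamase reporter GeneBLAzer system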); settings: HEK293H PPARd-UAS-bla, beta-lactamase FRET ratio, 17 h; activation: at 62.6 µM (top of the series) unless noted
In short: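 Beta-lactamase reporter read by fluorescence (LiveBLAzer B/G FRET, 2 h, room temperature). Test agents, in DMSO, incubated at 37 C with PPARd-bla HEK293H cells.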

[15] = qHTS assay to identify aromatase inhibitors - cell viability counter screen (AID 743084); settings: MCF-7 aro ERE viability, CellTiter-Fluor, 24 h; activity change, negative = cytotoxicity: at 70.3 µM (top of the series) unless noted;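 also: cells stimulated with testosterone during compound exposure; nearly all actives have a fitted effect of over 55% in size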; also: potency is read from the fitted curve at half-maximal effect
[16] = molecular target: Cytochrome P450 3A4 (Homo sapiens) (UniProt P08684); assay: Cytochrome P450 Family 3 Subfamily A Member 4 (CYP3A4) small molecule antagonists: luciferase reporter qHTS assay (AID 1671201); also: nearly all actives have a fitted effect of over 50% in size; also: potency is read from the fitted curve at half-maximal effect
In short: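 Recombinant human CYP3A4 converts a proluciferin substrate to luciferin over 1 h at room temperature after NADPH regeneration solution is added (compound preincubated 10 min); detection reagent stops reaction, luminescence read 20 min later as relative units.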

[17] = Caspase-3/7 induction in CHO-K1 cells by small molecules, qHTS cell viability counter screen (AID 1346979); also: nearly all actives have a fitted effect of over 35% in size; also: potency is read from the fitted curve at half-maximal effect
In short: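 Cytotoxicity counter screen: CellTiter-Fluor added to compound-treated wild-type CHO-K1 cells at 16 h (37C, 5% CO2), fluorescence measured 1 h later; same wells as caspase-3/7 measurement.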

[18] = molecular target: Aryl hydrocarbon receptor (Homo sapiens) (UniProt P35869); assay: qHTS assay to identify small molecule that activate the aryl hydrocarbon receptor (AhR) signaling pathway (AID 743085);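 also: HG2L7.5c1 human HepG2 liver cells with stably integrated DRE-driven firefly reporter; nearly all actives have a fitted effect of over 15% in size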
In short: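 Luminescence (ONE-Glo) from a dioxin-responsive-element luciferase reporter in HG2L7.5c1 HepG2 cells after 24 hr compound exposure at 37C; viability measured by CellTiter-Fluor fluorescence beforehand.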
Tags tell the direction and shape of the fitted curve or compound fluorescence and quenching.

UniProt Q03181, sequence (Q03181 whole entry, looked up): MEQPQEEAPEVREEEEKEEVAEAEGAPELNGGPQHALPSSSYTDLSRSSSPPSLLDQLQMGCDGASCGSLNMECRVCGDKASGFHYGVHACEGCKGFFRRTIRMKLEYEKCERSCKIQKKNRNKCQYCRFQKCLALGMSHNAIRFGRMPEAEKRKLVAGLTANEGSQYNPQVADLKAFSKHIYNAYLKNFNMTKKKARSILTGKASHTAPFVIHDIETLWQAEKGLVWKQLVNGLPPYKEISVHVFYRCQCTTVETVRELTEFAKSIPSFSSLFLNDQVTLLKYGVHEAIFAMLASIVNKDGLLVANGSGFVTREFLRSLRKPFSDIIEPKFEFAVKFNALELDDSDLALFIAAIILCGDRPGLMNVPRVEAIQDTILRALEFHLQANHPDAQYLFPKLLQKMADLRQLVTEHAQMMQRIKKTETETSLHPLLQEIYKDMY
UniProt P03372, sequence (P03372 whole entry, looked up): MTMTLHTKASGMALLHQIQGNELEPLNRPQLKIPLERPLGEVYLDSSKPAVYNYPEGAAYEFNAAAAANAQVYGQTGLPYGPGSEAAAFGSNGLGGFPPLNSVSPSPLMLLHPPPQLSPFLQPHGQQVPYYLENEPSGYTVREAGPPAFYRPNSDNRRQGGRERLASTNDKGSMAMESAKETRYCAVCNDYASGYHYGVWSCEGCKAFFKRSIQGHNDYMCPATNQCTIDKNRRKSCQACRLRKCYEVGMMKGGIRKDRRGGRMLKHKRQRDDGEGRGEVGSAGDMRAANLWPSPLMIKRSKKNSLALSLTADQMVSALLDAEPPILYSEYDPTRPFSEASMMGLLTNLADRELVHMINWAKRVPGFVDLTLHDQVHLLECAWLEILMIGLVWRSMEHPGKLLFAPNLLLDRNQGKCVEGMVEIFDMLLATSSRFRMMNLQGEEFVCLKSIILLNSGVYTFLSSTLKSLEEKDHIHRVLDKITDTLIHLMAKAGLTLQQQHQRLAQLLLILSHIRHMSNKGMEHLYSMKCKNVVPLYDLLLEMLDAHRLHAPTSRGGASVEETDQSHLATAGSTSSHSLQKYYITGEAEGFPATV
UniProt P35869, sequence (P35869 whole entry, looked up): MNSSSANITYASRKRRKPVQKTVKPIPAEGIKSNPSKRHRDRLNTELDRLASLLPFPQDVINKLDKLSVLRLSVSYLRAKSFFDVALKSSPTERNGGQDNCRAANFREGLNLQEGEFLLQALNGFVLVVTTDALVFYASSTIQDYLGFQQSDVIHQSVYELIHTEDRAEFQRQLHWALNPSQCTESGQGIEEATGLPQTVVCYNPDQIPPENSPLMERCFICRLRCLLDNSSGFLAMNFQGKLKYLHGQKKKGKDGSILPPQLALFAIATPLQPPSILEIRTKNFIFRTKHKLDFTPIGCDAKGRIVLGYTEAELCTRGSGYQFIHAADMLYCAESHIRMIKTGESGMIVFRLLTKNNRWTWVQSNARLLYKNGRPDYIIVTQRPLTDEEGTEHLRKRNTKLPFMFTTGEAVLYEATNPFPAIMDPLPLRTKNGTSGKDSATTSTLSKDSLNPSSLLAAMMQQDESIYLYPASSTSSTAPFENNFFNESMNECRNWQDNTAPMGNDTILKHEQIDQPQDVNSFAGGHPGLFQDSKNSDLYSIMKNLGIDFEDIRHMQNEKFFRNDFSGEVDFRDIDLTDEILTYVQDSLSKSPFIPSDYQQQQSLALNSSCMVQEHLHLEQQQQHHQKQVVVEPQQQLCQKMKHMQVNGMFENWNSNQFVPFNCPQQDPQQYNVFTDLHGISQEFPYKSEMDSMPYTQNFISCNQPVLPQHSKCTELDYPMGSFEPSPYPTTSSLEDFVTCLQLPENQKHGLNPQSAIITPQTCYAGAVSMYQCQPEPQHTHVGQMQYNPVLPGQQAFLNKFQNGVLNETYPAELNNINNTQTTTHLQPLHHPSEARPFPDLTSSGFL
UniProt P37231, sequence (P37231 whole entry, looked up): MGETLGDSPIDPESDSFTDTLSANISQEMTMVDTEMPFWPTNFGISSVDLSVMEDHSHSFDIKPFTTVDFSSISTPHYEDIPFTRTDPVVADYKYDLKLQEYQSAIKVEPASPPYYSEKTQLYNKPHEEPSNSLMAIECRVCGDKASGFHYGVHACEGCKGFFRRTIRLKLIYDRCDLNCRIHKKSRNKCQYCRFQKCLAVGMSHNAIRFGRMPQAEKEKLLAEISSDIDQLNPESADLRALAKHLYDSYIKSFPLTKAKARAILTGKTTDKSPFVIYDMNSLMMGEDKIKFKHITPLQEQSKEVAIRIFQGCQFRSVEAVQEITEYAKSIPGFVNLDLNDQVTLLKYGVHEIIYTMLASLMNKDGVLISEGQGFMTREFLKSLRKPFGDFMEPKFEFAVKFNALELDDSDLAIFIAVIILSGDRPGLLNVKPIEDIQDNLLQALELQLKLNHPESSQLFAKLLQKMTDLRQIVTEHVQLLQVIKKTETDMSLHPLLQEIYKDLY
UniProt P08684, sequence (P08684 whole entry, looked up): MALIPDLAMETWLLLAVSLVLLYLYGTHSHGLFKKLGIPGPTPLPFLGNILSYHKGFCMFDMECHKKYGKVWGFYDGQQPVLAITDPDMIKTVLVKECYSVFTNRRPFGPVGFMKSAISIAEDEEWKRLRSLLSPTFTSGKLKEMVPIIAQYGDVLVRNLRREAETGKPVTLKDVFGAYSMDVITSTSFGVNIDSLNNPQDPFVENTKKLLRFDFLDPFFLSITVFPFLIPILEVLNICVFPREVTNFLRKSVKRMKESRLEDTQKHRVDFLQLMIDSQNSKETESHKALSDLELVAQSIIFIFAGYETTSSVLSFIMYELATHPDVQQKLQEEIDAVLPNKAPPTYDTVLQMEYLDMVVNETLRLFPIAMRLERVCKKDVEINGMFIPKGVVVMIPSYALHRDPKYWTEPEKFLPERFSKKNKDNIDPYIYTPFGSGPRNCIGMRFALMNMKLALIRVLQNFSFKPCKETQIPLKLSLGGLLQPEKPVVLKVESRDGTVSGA
UniProt O75469, sequence (O75469 whole entry, looked up): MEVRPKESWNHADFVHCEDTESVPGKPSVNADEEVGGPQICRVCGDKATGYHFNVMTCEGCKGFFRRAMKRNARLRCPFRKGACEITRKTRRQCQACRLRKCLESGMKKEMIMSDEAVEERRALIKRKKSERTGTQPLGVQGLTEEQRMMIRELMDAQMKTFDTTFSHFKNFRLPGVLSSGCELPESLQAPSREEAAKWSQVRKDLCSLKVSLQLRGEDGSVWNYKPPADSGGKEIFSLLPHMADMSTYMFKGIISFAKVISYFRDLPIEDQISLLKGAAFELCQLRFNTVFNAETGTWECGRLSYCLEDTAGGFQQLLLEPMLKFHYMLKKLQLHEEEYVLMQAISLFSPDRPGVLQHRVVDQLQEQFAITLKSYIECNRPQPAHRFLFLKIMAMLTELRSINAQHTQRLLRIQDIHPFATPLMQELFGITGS

In the case of `CN(C)C`, the Potency [1] is reported as “inactive”, the Potency [2] is reported as inconclusive: 62.6 µM [activator, single point] and the Potency [3] is reported as inconclusive: 62.6 µM [activator, single point].

With `C[Si](C)(C)O[Si](O)(O)O` the Potency [4] was “inactive” and the Potency [5] was inconclusive: 54.9 µM [cytotoxic, single point].

In the case of `C=CCCCCCCCCOC(C)=O`, the Potency [6] is reported as “inactive”.

For `Nc1ccc(S(=O)(=O)O)c(N)c1`, the Potency [7] was “inactive”, the Potency [1] was “inactive” and the Potency [3] was inconclusive: 54.9 µM [activator, partial curve, poor fit].

In the case of `N[C@@H](Cc1cc(I)c(Oc2ccc(O)c(I)c2)c(I)c1)C(=O)O`, the Potency [1] is reported as active: 23.9 µM [inconclusive] and inconclusive: 51 µM [fluorescent], the Potency [4] is reported as active: 26.6 µM and active: 8.02 µM and the activation [8] is reported as inconclusive: 4.51%. For the same compound, the Potency [9] was inconclusive: 63.7 µM [rising, single point].

For `CCC(C)c1nccnc1OC` (stereo not drawn), the Potency [8] was “inactive”, the Potency [10] was “inactive” and the Potency [11] was “inactive”. For the same compound, the Potency [12] was “inactive”, the Potency [9] was “inactive” and the Potency [13] was “inactive”.

With `Nc1[nH]c(=O)ncc1F` the activation [14] was inconclusive: 2.79%, the Potency [5] was “inactive” and the Potency [10] was “inactive”.

With `CC(=O)c1ccc(O)cc1` the Potency [1] was inconclusive: 11 µM [activator, full curve] and inconclusive: 21.9 µM [activator, partial curve] and the Potency [15] was inconclusive: 0.077 µM [rising, full curve, poor fit].

With `CC(C)(CO)[C@@H](O)C(=O)NCCC(=O)O` the Potency [15] was inconclusive: 33.5 µM [cytotoxic, partial curve, poor fit] and the Potency [16] was “inactive”.

In the case of `O=Cc1ccccc1Cl`, the Potency [7] is reported as inconclusive: 21.5 µM [rising, full curve], the Potency [15] is reported as inconclusive: 15.1 µM [rising, full curve, poor fit] and the Potency [2] is reported as inconclusive: 54.1 µM [activator, single point]. The Potency [3] was inconclusive: 60.7 µM [activator, single point] and the Potency [11] was “inactive”.

With `C=C(C)OC(C)=O` the Potency [10] was inconclusive: 54.9 µM [activator, single point] and the Potency [11] was inconclusive: 54.9 µM [activator, single point].

With `CCCCOCCCC` the Potency [1] was “inactive”, the Potency [2] was inconclusive: 54.4 µM [activator, single point] and the Potency [3] was inconclusive: 54.4 µM [activator, single point].

For `CC(C)=CCCC(C)CC(=O)O` (stereo not drawn), the activity change, negative = cytotoxicity [15] was inconclusive: 30.7%, the Potency [14] was “inactive” and the Potency [17] was inconclusive: 17.2 µM [rising, full curve].

For `FB(F)F`, the Potency [15] was “inactive” and the Potency [8] was “inactive”.

In the case of `CCOC(=O)[C@H](CCc1ccccc1)N[C@H]1CS[C@H](c2cccs2)CN(CC(=O)O)C1=O`, the Potency [1] is reported as “inactive”.

For `O=C(O)COC(=O)Cc1ccccc1Nc1c(Cl)cccc1Cl`, the Potency [7] was “inactive”, the Potency [18] was “inactive” and the activation [8] was inconclusive: 16.7% [at 26.2 µM]. For the same compound, the Potency [6] was “inactive” and the Potency [17] was inconclusive: 33.5 µM [rising, partial curve, poor fit].

In the case of `O=Cc1ccc(CO)o1`, the Potency [4] is reported as “inactive”, the Potency [18] is reported as “inactive” and the Potency [17] is reported as “inactive”.

With `CCO[Si](OCC)(OCC)c1ccccc1` the Potency [6] was inconclusive: 1.79 µM [cytotoxic, single point], the Potency [17] was “inactive” and the Potency [16] was inconclusive: 89.4 µM [inhibitor, partial curve, poor fit].

In the case of `CS(=O)(=O)c1ccc(Cl)cc1`, the Potency [14] is reported as “inactive”, the Potency [6] is reported as “inactive” and the Potency [10] is reported as inconclusive: 27.5 µM [activator, full curve, poor fit]. For the same compound, the Potency [11] was inconclusive: 24.5 µM [activator, full curve, poor fit].

For `CC(=O)N1CCN(c2ccc(O)cc2)CC1`, the Potency [6] was “inactive”.
